Laboratory results: the supplement of paper PMC4723716
± gives the uncertainty stated by the source. Over roughly 9,900 compounds, “viability index relative to DMSO control” has its median near 1; the lowest 2% begin near 0.85. Some of the results follow.

Tested on: Plasmodium falciparum NF54 stage V gametocytes
Assay: viability index relative to DMSO control (fraction); higher = less gametocyte killing
Conditions: 2.5 µM, incubation time: 72 h
Outline: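 Gametocytes (P. falciparum NF54, stage V) were treated with compound at 2.5 µM for 72 hr at 37°C in low oxygen, in serum-free medium at 0.75% gametocytemia and 1.25% hematocrit. Counts of 20–70 µm2 red particles, taken from one field per well after MitoTracker Red CMXRos with saponin, were divided by the plate mean of solvent-only wells. This ratio is the viability index.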

[1] = library set: Broad Institute DOS

Cc1noc(C)c1NC(=O)Nc1ccc2c(c1)C(=O)N([C@@H](C)CO)C[C@H](C)[C@H](CN(C)S(=O)(=O)c1ccc(F)cc1)O2
viability index [1]: 0.98 ± 0.039

Cc1ccc(S(=O)(=O)N2C[C@H]3[C@@H](c4ccccc42)[C@@H](CO)N3Cc2cccnc2)cc1
viability index [1]: 0.972 ± 0.064

O=S(=O)(c1ccccc1)N1CC2(C1)[C@H](c1ccccc1)[C@H](CO)N2CC1CCOCC1
viability index [1]: 1.06 ± 0.1

C/C=C/c1ccc2c(c1)O[C@@H](CN(C)C(=O)Nc1ccc(OC)cc1)[C@@H](C)CN([C@@H](C)CO)S2(=O)=O
viability index [1]: 0.9731 ± 0.0091

CCC(=O)Nc1ccc2c(c1)C(=O)N(C)C[C@H](OC)[C@H](C)CN(Cc1nccs1)[C@@H](C)CO2
viability index [1]: 1.076 ± 0.0096

Cc1cccc(S(=O)(=O)N[C@@H]2CC[C@H](CCNC(=O)Nc3cc(F)ccc3F)O[C@@H]2CO)c1
viability index [1]: 1.07 ± 0.046

COc1ccc2c3c([C@H](CO)N(CC4CC4)C[C@]33CN(C3)C(=O)CC3CC3)n(C)c2c1
viability index [1]: 0.938 ± 0.14

CCS(=O)(=O)N1C[C@@]2(C1)CN(CC1CCOCC1)[C@H](CO)c1c2c2ccc(OC)cc2n1C
viability index [1]: 0.985 ± 0.037

C/C=C/c1ccc([C@H]2[C@@H](CO)N(C(=O)c3cnccn3)C23CN(C(=O)C2CCC2)C3)cc1
viability index [1]: 1.06 ± 0.014

CC(=O)NC[C@H]1[C@@H](c2ccc(-c3cccnc3)cc2)[C@@H](CO)N1C(=O)CC1CC1
viability index [1]: 1.03 ± 0.12

COc1ccc2c3c([C@H](CO)N(Cc4cc(OC)cc(OC)c4)C[C@]33CCN(CC3)C(=O)Nc3c(C)noc3C)n(C)c2c1
viability index [1]: 0.854 ± 0.04

C[C@@H]1CN([C@H](C)CO)C(=O)Cc2cc(NC(=O)c3ccncc3)ccc2O[C@H]1CN(C)C(=O)Nc1ccc(F)cc1
viability index [1]: 0.944 ± 0.12

CO[C@@H]1CN(C)C(=O)c2ccc(NS(=O)(=O)c3ccc(C)cc3)cc2OC[C@H](C)N(C)C[C@@H]1C
viability index [1]: 1.09 ± 0.012

CCCNC(=O)N1CC2(C1)[C@H](c1ccccc1)[C@@H](CO)N2C(=O)c1cccnc1
viability index [1]: 1.04 ± 0.019

COCCNC(=O)C[C@H]1CC[C@@H]2[C@H](COC[C@H](O)CN2Cc2ccc(Cl)c(Cl)c2)O1
viability index [1]: 1.13 ± 0.039

O=C(C[C@@H]1CC[C@H]2NC[C@@H](O)COC[C@@H]2O1)N1CCc2ccccc2C1
viability index [1]: 1.12 ± 0.068

CCCNC(=O)C[C@H]1CC[C@@H]2[C@H](COC[C@H](O)CN2C(=O)c2ccc(F)cc2)O1
viability index [1]: 1.04 ± 0.098

C[C@@H]1CNC(=O)[C@H](Cc2ccc(C(F)(F)F)cc2)CCn2nncc2COC1
viability index [1]: 1.03 ± 0.017

C[C@@H]1CN([C@H](C)CO)C(=O)c2cccc(N(C)C)c2O[C@@H]1CN(C)C(=O)Nc1ccc(F)cc1
viability index [1]: 0.857 ± 0.19

COCC#Cc1ccc([C@H]2[C@@H](CO)N3C(=O)CN(C(=O)c4ccncc4)C[C@@H]23)cc1
viability index [1]: 1.09 ± 0.031

O=C(C[C@@H]1C=C[C@H](NC(=O)Nc2ccccc2F)[C@H](CO)O1)NCc1ccc(-c2ccccc2)cc1
viability index [1]: 1.06 ± 0.13

C/C=C/c1ccc2n(c1=O)C[C@H]1[C@H](CO)[C@@H](C(=O)NCC)N(Cc3cccc(F)c3)[C@@H]21.C/C=C\c1ccc2n(c1=O)C[C@H]1[C@H](CO)[C@@H](C(=O)NCC)N(Cc3cccc(F)c3)[C@@H]21
viability index [1]: 1.096 ± 0.0075

CC(C)C#Cc1ccc([C@@H]2[C@@H](CO)N3C(=O)CN(C(=O)Cc4ccccc4)C[C@H]23)cc1
viability index [1]: 1.04 ± 0.039

CN1c2ccc(Br)cc2[C@@H]2[C@@H](CCN2C(=O)CN2CCOCC2)[C@H]1CO
viability index [1]: 1.1 ± 0.059

O=C(NCc1cc(F)cc(F)c1)[C@@H]1[C@@H](CO)[C@@H]2Cn3c(cccc3=O)[C@H]1N2C(=O)c1cnccn1
viability index [1]: 1.04 ± 0.042

CCCC(=O)Nc1ccc2c(c1)OC[C@@H](C)N(S(=O)(=O)c1cn(C)cn1)C[C@H](C)[C@H](OC)CN(C)C2=O
viability index [1]: 1.04 ± 0.036

COc1ccc(S(=O)(=O)Nc2ccc3c(c2)C(=O)N([C@H](C)CO)C[C@@H](C)[C@@H](CN(C)S(=O)(=O)c2ccc(Cl)cc2)OCCCC[C@@H](C)O3)cc1
viability index [1]: 0.533 ± 0.11

CC(C)CC#Cc1ccc([C@H]2[C@H](CO)N3C(=O)CN(C(=O)c4ccccn4)C[C@@H]23)cc1
viability index [1]: 1.06 ± 0.037

O=C(C[C@@H]1CC[C@@H](NC(=O)C2CCOCC2)[C@H](CO)O1)NCC1CCCCC1
viability index [1]: 1.13 ± 0.11

CNC[C@@H]1OCCCC[C@@H](C)Oc2ccc(NS(=O)(=O)c3ccc(F)cc3)cc2C(=O)N([C@H](C)CO)C[C@@H]1C
viability index [1]: 1.11 ± 0.02

CCC(=O)N1[C@@H](CO)[C@@H]2c3ccccc3N(S(=O)(=O)c3ccc(F)cc3)C[C@@H]21
viability index [1]: 1.02 ± 0.053

O=C(C[C@H]1C[C@H]2c3cc(NC(=O)C4CCOCC4)ccc3O[C@H]2[C@H](CO)O1)NCCN1CCCCC1
viability index [1]: 1 ± 0.046

CCCNC(=O)[C@H]1[C@H](CO)[C@H]2Cn3c(ccc(C4=CCCCC4)c3=O)[C@H]2N1Cc1ccccc1F
viability index [1]: 0.916 ± 0.027

CO[C@H]1CN(C)C(=O)c2cc(NS(=O)(=O)c3ccc(Cl)cc3)ccc2OC[C@H](C)N(C(=O)NC(C)C)C[C@@H]1C
viability index [1]: 1.06 ± 0.04

COc1ccc(C[C@@H]2CCc3cnnn3COC[C@H](CC(C)C)NC2=O)cc1
viability index [1]: 1.02 ± 0.11

Fc1cccc(-c2ccc([C@@H]3[C@H]4CNC[C@@H]3N4Cc3ccccn3)cc2)c1
viability index [1]: 1 ± 0.015

COc1ccc2c3c([nH]c2c1)[C@@H](CO)N(Cc1ccncc1)C[C@]31CCN(CC2CCOCC2)CC1
viability index [1]: 1.01 ± 0.07

CN(C)C(=O)[C@H]1[C@H](CO)[C@H]2Cn3c(ccc(C4=CCCC4)c3=O)[C@@H]1N2S(=O)(=O)c1cn(C)cn1
viability index [1]: 1.02 ± 0.083

N#C[C@H]1N[C@@H](CO)[C@@H]1c1ccc(-c2cccc(F)c2)cc1
viability index [1]: 1.07 ± 0.12

C[C@H]1CN([C@@H](C)CO)C(=O)Cc2cc(N(C)C)ccc2O[C@@H]1CN(C)C(=O)NC1CCCCC1
viability index [1]: 0.883 ± 0.058

CCCNC(=O)N[C@H]1C=C[C@H](CC(=O)N2CCN(C)CC2)O[C@H]1CO
viability index [1]: 0.9004 ± 0.0063

O=C(c1cccc(F)c1)N1CC(=O)N2[C@H](CO)[C@H](c3ccc(-c4cccnc4)cc3)[C@H]2C1
viability index (library set: Broad Institute Blood Stage): 0.771 ± 0.058

O=C(c1cccnc1)N1CC2(C1)[C@H](c1ccccc1)[C@@H](CO)N2C(=O)CC1CC1
viability index [1]: 1.1 ± 0.046

CO[C@H]1CN(C)C(=O)c2cc(NC(=O)Nc3cccc(Cl)c3)ccc2OC[C@@H](C)N(C(=O)Nc2c(C)noc2C)C[C@@H]1C
viability index [1]: 1.04 ± 0.042

C[C@@H]1CCCCO[C@H](CN(C)S(=O)(=O)c2ccc(F)cc2)[C@H](C)CN([C@H](C)CO)C(=O)c2cc(N(C)C)ccc2O1
viability index [1]: 1.04 ± 0.18

O=C(C1CCC1)N1C[C@@H]2N[C@H](C1)[C@H]2c1ccc(/C=C/c2ccccc2)cc1
viability index [1]: 1.02 ± 0.042

CN(C)CC(=O)N[C@@H]1CC[C@H](CCNC(=O)C2CCC2)O[C@H]1CO
viability index [1]: 1.05 ± 0.18

Cc1noc(C)c1NC(=O)N1C[C@@H](O)COC[C@@H]2O[C@H](CC(=O)N3CCc4ccccc4C3)CC[C@H]21
viability index [1]: 1.08 ± 0.11

C[C@@H](NC(=O)C[C@@H]1CC[C@H]2[C@@H](COC[C@@H](O)CN2Cc2ccc(C(F)(F)F)cc2)O1)c1ccccc1
viability index [1]: 1.13 ± 0.07

N#C[C@@H]1[C@H](c2ccccc2-c2ccccc2)[C@H](CO)N1C(=O)Cc1ccncc1
viability index [1]: 1.08 ± 0.13

C/C=C/c1ccc([C@@H]2[C@@H](CO)N(C(=O)c3ccccc3)C23CN(C(C)=O)C3)cc1
viability index [1]: 1.09 ± 0.056

COc1ccc2c3c([C@@H](CO)N(C)C[C@]33CCN(CC3)C(=O)NC(C)C)n(C)c2c1
viability index [1]: 1.04 ± 0.012

COCCN(C[C@@H]1[C@@H](c2ccccc2)[C@H](CO)N1C(=O)C1CC1)C(C)=O
viability index [1]: 1.02 ± 0.022

COc1ccc2c3c([C@H](CO)N(C[C@]33CN(Cc4ccncc4)C3)C(=O)CC3CC3)n(C)c2c1
viability index [1]: 1.11 ± 0.096

CN1C(=O)c2cc(NC(=O)Cc3cccs3)ccc2OC[C@H]2O[C@@H](CC(=O)NCc3ccc(-c4ccccc4)cc3)CC[C@H]21
viability index [1]: 1.09 ± 0.09

C[C@@H]1CN([C@@H](C)CO)C(=O)c2cccc(NC(=O)Nc3ccc(C(F)(F)F)cc3)c2O[C@@H]1CN(C)S(=O)(=O)c1cn(C)cn1
viability index [1]: 1.04 ± 0.037

Cc1noc(C)c1S(=O)(=O)N(C)C[C@H]1Oc2c(NS(=O)(=O)c3cn(C)cn3)cccc2C(=O)N([C@@H](C)CO)C[C@H]1C
viability index [1]: 0.958 ± 0.086

C/C=C/c1ccc([C@H]2[C@H]3CNC[C@@H]2N3C(=O)Nc2ccccc2Cl)cc1
viability index [1]: 1.11 ± 0.077

CCS(=O)(=O)N1C[C@@]2(C1)CN([C@H](CO)c1[nH]c3cc(OC)ccc3c21)S(=O)(=O)c1cccc(OC)c1
viability index [1]: 1.04 ± 0.12

C[C@H](CO)N1C[C@H](C)[C@@H](CN(C)Cc2cccc(C(=O)O)c2)OCc2ccccc2-c2ccccc2C1=O
viability index [1]: 1.04 ± 0.024

CCC(=O)N1C[C@]2(CN(C2)C(C)=O)c2c([nH]c3cc(OC)ccc23)[C@@H]1CO
viability index [1]: 1.01 ± 0.069

C[C@H](CO)N1C[C@H](C)[C@H](CN(C)S(=O)(=O)c2ccc(Cl)cc2)Oc2ccc(NS(=O)(=O)c3cccs3)cc2C1=O
viability index [1]: 1.02 ± 0.083

CCS(=O)(=O)Nc1ccc2c(c1)C(=O)N(C)[C@H]1CC[C@@H](CC(=O)N3CCN(C)CC3)O[C@H]1CO2
viability index [1]: 1.05 ± 0.039

C[C@@H]1CCCCO[C@@H](CN(C)S(=O)(=O)c2ccc(Cl)cc2)[C@@H](C)CN([C@H](C)CO)C(=O)c2cc(NC(=O)Nc3ccc(C(F)(F)F)cc3)ccc2O1
viability index [1]: 1.07 ± 0.025

COc1ccccc1S(=O)(=O)N[C@@H]1C=C[C@H](CC(=O)N2CCOCC2)O[C@@H]1CO
viability index [1]: 1.11 ± 0.13

COc1cccc(NC(=O)N[C@H]2C=C[C@@H](CC(=O)NCc3ccncn3)O[C@@H]2CO)c1
viability index [1]: 1.09 ± 0.059

COCCNC(=O)C[C@@H]1CC[C@@H]2[C@H](COC[C@H](O)CN2Cc2ccc(Cl)c(Cl)c2)O1
viability index [1]: 1.03 ± 0.06

COC(=O)c1ccc(CN2CC(=O)N3[C@H](CO)[C@H](c4ccc(-c5cccnc5)cc4)[C@H]3C2)cc1
viability index [1]: 1.06 ± 0.036

C/C=C/c1ccc2n(c1=O)C[C@@H]1[C@@H](CO)[C@H](C(=O)NCCC)[C@H]2N1Cc1ccccc1OC.C/C=C\c1ccc2n(c1=O)C[C@@H]1[C@@H](CO)[C@H](C(=O)NCCC)[C@H]2N1Cc1ccccc1OC
viability index [1]: 1.04 ± 0.025
